{"source": "paper PMC12528421", "about": "(Nature Communications, 2025)", "binders": {"B1": {"name": "GST-STAT3 (natural protein)", "chain": "not shown"}}, "target": "T1, Flag-AS160 (human, UniProt O60343-1 1-1298)", "T1 sequence (looked up)": "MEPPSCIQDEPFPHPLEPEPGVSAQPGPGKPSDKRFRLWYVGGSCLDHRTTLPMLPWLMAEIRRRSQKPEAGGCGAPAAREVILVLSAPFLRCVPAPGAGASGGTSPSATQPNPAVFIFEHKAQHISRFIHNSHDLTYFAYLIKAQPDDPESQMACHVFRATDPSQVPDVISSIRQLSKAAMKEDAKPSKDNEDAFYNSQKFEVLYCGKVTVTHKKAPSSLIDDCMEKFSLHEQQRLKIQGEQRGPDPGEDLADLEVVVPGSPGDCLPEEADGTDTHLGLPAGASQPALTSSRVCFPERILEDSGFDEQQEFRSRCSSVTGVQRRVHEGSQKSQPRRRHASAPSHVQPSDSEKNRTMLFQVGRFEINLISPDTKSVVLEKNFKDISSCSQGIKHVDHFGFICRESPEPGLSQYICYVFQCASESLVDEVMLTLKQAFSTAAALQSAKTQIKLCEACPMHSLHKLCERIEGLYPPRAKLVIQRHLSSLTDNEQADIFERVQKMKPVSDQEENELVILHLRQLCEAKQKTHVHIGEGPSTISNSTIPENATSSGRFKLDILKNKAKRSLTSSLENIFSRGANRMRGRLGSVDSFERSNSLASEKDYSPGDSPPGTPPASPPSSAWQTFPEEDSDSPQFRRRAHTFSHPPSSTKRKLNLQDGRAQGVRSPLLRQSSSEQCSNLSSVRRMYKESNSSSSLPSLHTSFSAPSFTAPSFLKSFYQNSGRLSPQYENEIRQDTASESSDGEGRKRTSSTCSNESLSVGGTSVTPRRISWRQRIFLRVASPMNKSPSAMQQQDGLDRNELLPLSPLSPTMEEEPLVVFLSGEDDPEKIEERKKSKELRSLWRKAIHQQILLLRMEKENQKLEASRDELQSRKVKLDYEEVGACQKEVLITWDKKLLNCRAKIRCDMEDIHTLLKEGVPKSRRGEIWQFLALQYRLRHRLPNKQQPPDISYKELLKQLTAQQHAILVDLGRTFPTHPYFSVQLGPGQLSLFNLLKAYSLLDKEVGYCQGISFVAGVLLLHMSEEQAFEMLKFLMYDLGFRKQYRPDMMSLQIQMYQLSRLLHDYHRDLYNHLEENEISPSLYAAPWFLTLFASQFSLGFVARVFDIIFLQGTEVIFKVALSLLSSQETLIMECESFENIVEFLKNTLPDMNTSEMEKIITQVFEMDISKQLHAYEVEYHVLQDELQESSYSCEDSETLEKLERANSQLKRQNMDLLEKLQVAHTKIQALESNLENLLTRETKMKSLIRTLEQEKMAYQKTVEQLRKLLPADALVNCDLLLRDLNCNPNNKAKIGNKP", "assay": "pull-down", "data": [{"binder": "B1", "values": [{"measurement": "binding result", "result": "binds"}]}]}
